Measurements: the supplement of paper PMC3334620
Whole data set: some 33,000 sequences, median “E-score (-0.5 to 0.5)” near -0.036, cut for the highest 2% near 0.37. The list shows a part of the results.

Molecular target: T1, Yer064c (UniProt P40041)
T1 sequence: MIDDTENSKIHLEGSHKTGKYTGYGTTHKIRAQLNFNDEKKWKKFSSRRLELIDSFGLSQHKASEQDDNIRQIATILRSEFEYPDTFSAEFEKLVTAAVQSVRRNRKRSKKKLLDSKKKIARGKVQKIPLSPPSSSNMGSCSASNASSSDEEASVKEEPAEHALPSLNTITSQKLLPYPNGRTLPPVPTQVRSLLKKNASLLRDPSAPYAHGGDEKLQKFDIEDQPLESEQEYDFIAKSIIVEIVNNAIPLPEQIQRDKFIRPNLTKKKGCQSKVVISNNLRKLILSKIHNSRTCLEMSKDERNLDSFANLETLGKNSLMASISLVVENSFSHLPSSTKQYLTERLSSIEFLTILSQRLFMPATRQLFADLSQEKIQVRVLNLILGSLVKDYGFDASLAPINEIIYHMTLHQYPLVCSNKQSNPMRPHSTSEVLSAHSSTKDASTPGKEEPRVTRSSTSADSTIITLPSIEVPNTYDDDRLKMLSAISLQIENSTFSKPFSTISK
Test: PBM E-score (8-mer binding enrichment) (E-score (-0.5 to 0.5)); higher = stronger / more preferred TF binding; most listed sequences are background and not binding sites
Details: protein concentration: 200 nM; construct: GST-full length
Method: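 Universal 'all 10-mer' protein binding microarrays (Agilent AMADID 015681) probed with GST-tagged S. cerevisiae TFs (full-length or DBD) made by in vitro transcription/translation (PURExpress), about 100-200 nM. Bound TF was detected with fluorescent anti-GST. Each ungapped 8-mer (which stands for itself and its reverse complement) is scored by the PBM enrichment score (E-score), a modified Wilcoxon-Mann-Whitney statistic from -0.5 to +0.5, computed with the Universal PBM Analysis Suite. Scale: above 0.35 generally sequence-specific binding.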

Sequence	PBM E-score
CGTTGGTA	-0.149
CTGTATTA	0.084
AGTCTCAT	0.35
CACATGTA	0.12
CCCAGTTA	-0.121
ACCGCCCG	-0.298
AAGTCGGG	0.043
ATAATATC	0.0263
GACTTTGA	0.271
CCCAGTGA	0.0589
CTAGGGAA	0.0319
CTATTGGA	-0.0392
CTCGACAC	-0.0303
ACATGCAC	-0.134
CCGTAGGC	-0.119
GACAGCCC	-0.251
GTCACCGA	0.217
CTGATTAC	0.375
GGATAGTA	0.0259
TATTAGCA	0.0544
CGGACATA	-0.212
ATACGGCC	-0.0448
CCCCATCG	-0.149
GAGATGAC	0.367
GGTCGATA	-0.014

Sequence	PBM E-score
CGACTCCA	0.378
GTGGTGCA	-0.224
GCCGATCC	-0.297
GCCAAATA	-0.0624
AACCAGAC	0.00178
CCATCTGC	-0.0126
AGTGCAAC	0.016
GTGCTCGA	0.0425
GTGTGGTA	-0.0564
AAACGCAA	0.0476
GAGCATCC	-0.385
CGCAATAC	0.102
CCGTCCAG	-0.0948
CCGCGTAG	-0.0989
TAACGCAA	-0.0589
GTGCCATA	-0.327
GATGATGC	0.0169
GCTAAGCC	-0.0917
ACACAGGC	-0.0299
GAACGTTA	-0.277
GGATACTA	-0.124
AAGAGTGG	-0.242
GGAACCAA	-0.106
GATCCCCC	-0.4
GCGCATAC	-0.26

Sequence	PBM E-score
GGTCTAGA	0.0169
CATTACGG	-0.219
CACGGTAA	0.0166
GTTCCCAA	-0.0804
CCGATATA	-0.104
CTCCTCAA	-0.0008
CGCTAGCC	-0.305
AATTATTA	0.0705
CTCCCCAA	-0.00906
CCGTTCAG	-0.187
AGTTGCCG	-0.249
CTTAGGCC	-0.115
ATCTAAAG	0.0395
ACGTCTAA	0.0568
CCTTTTCG	-0.126
CGCAACAC	0.201
GCGCAACC	-0.199
GGCCAGAA	-0.177
CAGACGAA	-0.0171
CGCTTCGA	-0.105
CCGAGATA	0.121
CGAGCAAA	-0.197
AAACCGCG	-0.105
TCCCGGGA	-0.0321
ACTACTTA	0.236

Sequence	PBM E-score
ACAACAAA	-0.019
CCTCGGCA	-0.203
CTCTGGAA	0.00829
AAGCACCG	-0.164
CACTGGAC	0.102
GCGCCTGA	-0.0839
ATAGGGAT	-0.122
GTCACAAC	0.213
CGACGGAA	-0.0853
GCGAGGAC	0.0958
CTTGCTTC	-0.192
AGTTCATA	0.036
AGAAATCA	0.357
CCCCTAGA	-0.0907
CCACACAC	-0.0431
CTCCGGAC	-0.0121
AACGCGCG	0.0532
GGCAGCGA	-0.194
GGGATACA	-0.138
ATGGAAAT	-0.0146
GACGGTCA	-0.0972
GGTCTCGA	-0.0527
ACCGAGGC	-0.0911
CTACGCAA	-0.0184
CCTAGCAG	-0.117

Sequence	PBM E-score
GTTGGTTA	0.0865
AGTCTTAT	0.383
AGTTTACG	0.0868
CACCTGGG	-0.00124
AGTGATGG	0.0175
AGCCACGA	0.14
ATGGTAAC	-0.113
CCATCGAC	-0.0393
AACTATGA	0.237
GAACGTCC	-0.24
TAGAAAAA	0.0544
AGGCCATA	-0.114
ACTTAGTG	0.198
AGGATAAC	-0.227
ATCGATAC	0.0246
GCCACGTA	-0.293
CCCGCAGC	-0.203
GGGAAATA	-0.0646
CTATCTGC	-0.073
GGCAGTTA	0.0767
CAACGGCA	-0.126
GATCGCAA	-0.101
CGCGGTCC	-0.37
CATGCTTC	0.0439
AAATGAAC	0.0568

Sequence	PBM E-score
GACAGATA	-0.114
GTCATTAA	0.324
CAGCTACG	0.0148
GACAAAAC	-0.054
ATTTATGC	-0.0807
CTAAGGAC	0.173
TTAAGTAA	0.133
AGGCGTCA	-0.128
AGTGTATG	-0.148
AGACTACA	0.344
AATCGTCT	0.137
CAGGTTCG	-0.198
ACGCTTAG	-0.106
ATTCCGAG	0.0157
AAGCATTC	-0.171
CGGGGACC	-0.222
CTATTGAA	0.0653
CCAGCTCG	-0.063
TCATACAA	0.175
ATATTCTG	-0.0808
CACTGGCA	0.00787
CGGAGGCC	-0.387
CTTACGCA	0.0189
AATACGTC	-0.176
CTAAGGTA	0.105

Sequence	PBM E-score
ATTAGCGA	0.0549
ATTACATC	-0.0119
ACTTGTCC	0.0288
AGATAAGG	-0.163
TAGTGACA	-0.0291
GGTAGCTA	-0.152
ACAAGCCT	-0.0515
AGGTATAT	-0.0319
GTCTGCAA	0.00067
ATTGTCAG	0.102
AGCGACCC	-0.196
AGGGGATC	-0.337
ACTGTACC	0.021
CGTAATCC	-0.0532
GAGAGACA	0.0904
AGCCGCAG	-0.13
CGTACAGA	-0.0762
GACGAATA	-0.129
AAGGAATG	0.0367
AATATGAG	0.25
ATCTTCAA	0.165
CAGACTCG	0.218
ATCTAGCC	-0.00465
ACATTGAA	0.153
GGGGCGCA	-0.245

Sequence	PBM E-score
ACACGCTC	0.0833
ATTAGCTC	0.141
CCGCACCG	-0.0486
ATAACCTA	-0.136
CTTGCCGA	0.0517
ACCTCAGC	0.0114
AGCCTACA	-0.0615
ACCGTGAA	0.0427
AGGGCATG	-0.105
CACTCGCC	-0.0244
GGGCCTGA	-0.112
CCGGTACA	-0.226
CAACAGCC	-0.136
CACGAAGA	0.175
ATGTCATC	-0.179
ACAGGTGC	-0.16
ACGTAGTA	-0.0277
ACGGGCGA	-0.195
AGTGCCAG	-0.246
ACTGATGG	0.00675
AACCGGCG	0.00912
GTCTCACA	0.273
AGAGGGGA	-0.235
AAGTCATA	0.46
GATACTAA	0.0479

Sequence	PBM E-score
GATTGGAA	0.0504
ACGCAAGA	-0.00165
GCAACCGC	-0.0648
ATGGAAAG	-0.0473
ACAGGTTG	-0.138
CCGTTTCA	-0.244
CAGTGTCA	0.0794
CCACGCTA	-0.126
CTCTACGA	0.148
AGCCTCCG	-0.212
TACATAGA	0.0752
CGCGGAAA	-0.0571
CAGCGACA	-0.154
GACCCATC	0.13
GAAACACA	0.144
CATTTCGG	-0.126
CGCAGAAC	-0.0691
CTGCTGCA	-0.0266
ATCAAGAC	0.181
